Measurements from PubChem BioAssay AID485313 (National Center for Advancing Translational Sciences (NCATS), 2010).
Screen size: about 320,000 compounds; about 7,600 (2.4%) were called active. The inconclusive results got no clear call from the source; some entries with a clear call stand among them for comparison. The call rests on the fitted dose curve; in most records, active means well fitted activation curve with a large enough effect; inconclusive means small, poorly fitted or top-dose-only effect; inactive means no such curve, though single readings can be large or run the other way. No potency is given beside an inconclusive call; the fits are too rough.

assay: qHTS Assay for NPC1 Promoter Activators; settings: Huh7 NPC1 promoter luciferase reporter, 24 h; series mostly up to 9.22 µM; further: nearly all actives have a fitted effect of over 60% in size
Description: NIH Chemical Genomics Center [NCGC] NIH Molecular Libraries Probe Production centers Network [MLPCN] MLPCN Grant: MH089375-01A1 Assay Submitter (PI): Yiannis A. Ioannou NCGC Assay Overview: Niemann Pick Type C (NPC) is a rare neurodegenerative lipidosis that is characterized by lipid storage in the endosomal/lysosomal system. Treatment modalities for this devastating disease are currently non-existent due to the severe obstacles associated with accessing the central nervous system with proteins or genes. The majority of mutations causing NPC disease are missense mutations that are distributed throughout the length of the NPC1 protein, with the most prevalent being the I1061T allele. Although NPC1 mutant proteins may be functional, they are typically trapped in the ER due to misfolding. […] We have developed and optimized a cell based luciferase reporter assay in 1536 well format for the identification of up-regulators of the mutant NPC1 promoter.
The NPC1 promoter is cloned in front of the luciferase reporter gene, therefore NPC promoter activation results in luciferase expression. Frozen stock of the NPC1 promoter transfected Huh7 cells were obtained from the laboratory of Dr. Yiannis Ioannou (The Mount Sinai School of Medicine, New York, NY). Cells were propagated and maintained at NCGC in medium containing RPMI-1640 supplemented with 10% FBS, 2mM L-glutamine, and 50ug/ml penicillin/streptomycin. Cells were harvested in and plated for assays in OP-MEM I reduced-serum medium supplemented with 10% FBS. The Amplite luciferase reporter gene assay kit was purchased from ABD Bioquest and prepared/stored according to manufacturers recommendations. qHTS Assay Setup: 1.#Dispensed 5ul of Huh7 cells stably expressing NPC1-luciferase at a density of 1500 cells per well 1536-well plates. 2.#Incubate cells at 37C, 5% CO2, and 95% humidity for 2 hours. 3.#Transferred 23nl per well of compound in DMSO solution. 4.#Incubated at 37C, 5% CO2, and 95% humidity for 24 hours. 5.#Dispensed 3ul per well of Amplite reagent(ABD Bioquest) per well. 6.#Incubate at ambient for 10 minutes. 7.#Read using the luminescence protocol on the ViewLux plate reader (Perkin Elmer).
Potency means the concentration at half of the fitted maximal effect; tags describe the fitted curve by direction and shape.

SMILES | Potency
Cc1ccc2c(Cl)c(C(=O)NCC3CCCO3)sc2c1 (centres undefined) | active: 2000 nM
CCc1nnc(NC(=O)C=C(C)C)s1 | inconclusive [activator, partial curve]
O=C(Nc1nc2ccsc2c(=O)s1)c1ccc(Cl)cc1 | active: 251 nM
O=C(OCc1nc2ccccc2s1)c1ccco1 | inactive
Cc1ccc(C(=O)NC(=S)Nc2cccnc2Cl)cc1 | active: 2510 nM
CC(C)c1ccc(NC(=O)Nc2cnccn2)cc1 | inconclusive [activator, single point]
COc1ccc(NC(=O)c2ccc(NC(=O)c3ccncc3)cc2)cc1 | inactive
CCc1n[n+](CC(=O)c2ccccc2)c(N)s1 | active: 316 nM
O=C(O)c1ncn(Cc2ccccc2)c1C(=O)O | inactive
COC(=O)c1cccc(NC(=O)NC(=O)c2ccc(Cl)cc2)c1 | inconclusive [activator, partial curve]
COc1ccc(CCNc2ncccc2C#N)cc1OC | inconclusive [activator, partial curve]
COc1cc(SC)ccc1C(=O)Nc1ccc2c(c1)OCCO2 | inconclusive [activator, single point]
CC(C)(CNC(=O)/C=C/c1ccc(F)cc1)CNC(=O)/C=C/c1ccc(F)cc1 | inactive
O=C(CSc1nnc(-c2ccc(Cl)cc2)o1)N1CCOCC1 | inconclusive [activator, partial curve]
COc1ccc(-c2cc(C(=O)N3CCOCC3)no2)cc1OC | inconclusive [activator, partial curve]
Cn1c(NC(=O)/C=C\c2ccccc2)cc(=O)n(C)c1=O | inactive
CC(/C=C/c1ccco1)=N/NC(=O)c1ccccc1Cl | inconclusive [activator, single point]
Cc1ccc(NC(=S)c2nc3ccccc3[nH]2)cc1 | active: 3980 nM
O=C(N/N=C/c1c[nH]c2ccccc12)c1cccs1 | inconclusive [activator, single point]
C=C(CC)C(=O)c1ccc(OCC(=O)O)c(Cl)c1Cl | inactive
O=C(Nc1nc(-c2ccccc2)cs1)c1ccccc1F | inconclusive [activator, partial curve]
O=c1c2c(nc3cc(-c4ccccc4Cl)[nH]n13)CCS2 | inconclusive [activator, single point]
Cn1c(-c2ccc(C(F)(F)F)cc2)cc2onc(-c3ccccc3)c2c1=O | active: 398 nM
O=C(/C=C/c1ccco1)Nc1ccc(F)cc1 | active: 3980 nM
